Hit rate of the full screen: of about 410,000 compounds, about 5,000 (1.2%) were called active. The inconclusive results got no clear call from the source; some entries with a clear call stand among them for comparison. Calls come from the whole dose curve; as a rule, active = well fitted inhibition curve with a large enough effect; inconclusive = small, poorly fitted or top-dose-only effect; inactive = no such curve, though single readings can be large or run the other way. Potencies of inconclusive entries are doubtful fits and often do not repeat.
Experiment: qHTS for Inhibitors of TGF-b; note: nearly all actives have a fitted effect of over 65% in size
Conditions: HepG2 CAGA-GFP TGF-b/SMAD3 reporter, GFP fluorescence, 18 h, TGF-beta stimulated, 500 pg/mL final; series mostly up to 46.1 µM; activity, negative = inhibition: at the top concentration
How it was run: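 GFP signal (ex488/em500-530) from TGF-beta-stimulated HEPG2 CAGA-GFP cells, 500 pg/mL final, 18 h at 37 degrees C in DMEM plus 1% FBS, normalized to unstimulated and DMSO-stimulated controls.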
% is set by controls: 0 for no effect and ±100 for the full control effect; potency is the fitted concentration of half-maximal effect; tags give direction and shape of the fitted curve.

Structure (SMILES)	Potency	activity, negative = inhibition
CC(=O)Nc1cc(-c2ccoc2)cn2c(-c3ccccc3)cnc12	inconclusive: 3.16 µM [inhibitor, single point]	–
Cn1nnnc1SCC(=O)N1CCN(c2cccc(Cl)c2)CC1	inconclusive: 35.5 µM [inhibitor, single point]	–
CC(=O)Nc1cccc(-c2ccnc3c2CC(C)(C(=O)NCc2ccc(F)c(F)c2)O3)c1 (stereo unspecified)	–	inactive: -11.1%
S=C(NCc1ccccc1)Nc1ccc(Oc2ccccc2)cc1	inconclusive: 20 µM [inhibitor, single point]	–
Cc1ccc(NC(=O)C2CCN(c3ncnc4sc(C)c(C)c34)CC2)cc1S(=O)(=O)N(C)C	inconclusive: 22.4 µM [inhibitor, single point]	–
COc1ccc(-c2csc(NCCc3nc4cc(Cl)c(N5CCCCC5)cc4n3CCOCCO)n2)cc1	inconclusive: 8.91 µM [inhibitor, partial curve]	–
Cc1ccn2c(=O)c(C(=O)NC3CCCCC3C)c(O)nc2c1 (stereo unspecified)	–	inactive: 22.6%
COC(=O)N/N=C/c1cn(CCCOc2ccc(C)cc2)c2ccccc12	active: 14.1 µM	–
CC1CCC(=NNC(=O)Cc2ccccc2)CC1 (stereo unspecified)	inconclusive: 4.47 µM [inhibitor, full curve, poor fit]	–
COc1ccccc1Cn1c(=S)[nH]c2cc(C(=O)NCC3CCCO3)ccc2c1=O (stereo unspecified)	–	inactive: -8.94%
CCc1ccc(/C=C2/C(=O)N(CC)C(=S)N2C)s1	inconclusive: 25.1 µM [inhibitor, single point]	–
COc1cc(NC(=O)c2ccc(N)nc2)cc(C(=O)Nc2cccc(C(F)(F)F)c2)c1	inconclusive: 17.8 µM [inhibitor, single point]	–
COc1ccc(NC(=O)CCN2C(=O)c3ccccc3S2(=O)=O)cc1	inconclusive: 35.5 µM [inhibitor, single point]	–
Cc1ccc(S(=O)(=O)NCCOC(=O)Nc2sc(=S)n(C)c2C)cc1	inconclusive: 31.6 µM [inhibitor, partial curve, poor fit]	–
CCCSc1nc2c([nH]1)c(=O)n(C)c(=S)n2C	–	inactive: -17.4%
CCOC(=O)C1(CCc2ccccc2)CCN(Cc2cc(OC)c(OC)cc2OC)CC1	inconclusive: 35.5 µM [inhibitor, single point]	–
CC(=O)c1c(C)[nH]c(C(=O)OCn2nnc3ccccc3c2=O)c1C	inconclusive: 5.62 µM [inhibitor, single point]	–
CN(C)CCNc1ccc2nnn3c4ccc(O)cc4c(=O)c1c23	inconclusive: 15.8 µM [inhibitor, partial curve, poor fit]	–
COC(=O)C[C@H]1C[C@H]2c3cc(NC(=O)NC4CCCC4)ccc3O[C@H]2[C@@H](CO)O1	–	inactive: 12.6%
C=CCN(c1ccccc1OC)S(=O)(=O)c1cccc(C(=O)NCC(c2ccc(OC)cc2)N2CCCC2)c1 (stereo unspecified)	–	inactive: -27.4%
Cc1cccc(-c2cnc(C(O)Cc3ccccc3)[nH]2)c1 (stereo unspecified)	–	inactive: -4.84%
CCc1ccc(OCC(=O)NC(=S)Nc2ccc(F)cc2)c(Br)c1	–	inactive: -20.1%
CN1CCC(N(C)C(=O)/C=C/c2cn(-c3ccccc3)nc2-c2cccs2)CC1	inconclusive: 35.5 µM [inhibitor, single point]	–
CN(CC(=O)Nc1ccc(Cl)cc1)C(=O)CNC(=O)c1ccc(Br)o1	inconclusive: 5.62 µM [inhibitor, single point]	–

Structure (SMILES)	Potency	activity, negative = inhibition
COc1ccc(OC)c(N(CC(=O)NC2CC3CCC2C3)S(=O)(=O)c2ccccc2)c1 (stereo unspecified)	inconclusive: 17.8 µM [inhibitor, single point]	–
Cc1ccc2occ(-c3cc(-c4ccc(F)cc4)nc4c3COc3ccc(F)cc3-4)c(=O)c2c1	–	inactive: -21.1%
Cc1ccc(O)c(/C=N/NC(=O)CN2CCCC2)c1	–	inactive: -10.4%
O=C(NNC(=O)c1ccccc1OCc1ccc(F)cc1)c1ccccc1O	inconclusive: 22.4 µM [inhibitor, single point]	–
CC(C)C[C@H](NC(=O)c1[nH]cnc1C(=O)N[C@@H](Cc1ccccc1)C(=O)OC(C)(C)C)C(=O)OC(C)(C)C	active: 11.2 µM	–
COC(=O)c1ccc(NC(=O)CCc2c(C)nc3c(c(C)nn3C(C)(C)C)c2C)cc1	active: 15.8 µM	–
NC(=O)c1ccsc1NC(=O)COC(=O)c1cccnc1Cl	–	inactive: -1.89%
CCN(C(=O)CSc1nc(-c2ccccc2)no1)c1ccccc1	inconclusive: 12.6 µM [inhibitor, single point]	–
Cc1ccc(S(=O)(=O)N2C[C@@H]3[C@H]4CC[C@H](C4)[C@@H]3[C@@H](C)[C@H]2c2ccco2)cc1	inconclusive: 14.1 µM [inhibitor, partial curve]	–
CCOC(=O)N1CCN(C(=O)CSc2nc3ccccc3c(=O)n2-c2ccccc2)CC1	active: 3.16 µM	–
CCOC(=O)CC(NC(=O)Cn1nnc(-c2ccccc2F)n1)c1ccc(OC)cc1 (stereo unspecified)	inconclusive: 5.62 µM [inhibitor, single point]	–
Cc1ccc(S(=O)(=O)N2CCN(C(=O)c3c(C)nn(-c4ccccc4)c3Cl)CC2)cc1	–	inactive: 0.556%
COc1cc(-c2noc(C)c2C(=O)NCCCN2CCCC2=O)cc(OC)c1OC	inconclusive: 0.355 µM [inhibitor, partial curve, poor fit]	–
CCCCN(CC)C(=O)c1nn(-c2ccc(OC)cc2)c(=O)c2c1c1ccccc1n2C	inconclusive: 35.5 µM [inhibitor, single point]	–
CC(C)[C@H](CN(N=O)[C@@H](Cc1ccccc1)CN(C)N=O)N(CCc1ccccc1)N=O	–	inactive: -2.32%
O=[N+]([O-])c1cccc(/C=C/c2ccccc2)c1	–	inactive: 0.658%
CCOC1=C2[C@@H](CN(S(=O)(=O)c3ccc(C)cc3)[C@H]2c2cccc3ccccc23)[C@H]2C(=O)N(CC)C(=O)[C@H]2C1	inconclusive: 35.5 µM [inhibitor, single point]	–
CCN(CC)C(=O)[C@H]1CC(CC(=O)NCCC2=CCCCC2)C(=O)N2CCc3c([nH]c4ccc(OC)cc34)[C@]12C (stereo partly specified)	inconclusive: 5.01 µM [inhibitor, full curve]	–
Cc1ccc2nc(-c3ccc(C)o3)c(Nc3ccc4c(c3)OCCO4)n2c1	inconclusive: 35.5 µM [inhibitor, single point]	–
CCOC(=O)c1c(-c2ccccc2)csc1NC(=O)c1cc(S(=O)(=O)N2CCOCC2)ccc1C	–	inactive: 6.97%
CCc1ccc(-n2c(C)cc(/C=N/NC(=O)OC)c2C)cc1	inconclusive: 14.1 µM [inhibitor, single point]	–
Cc1ccc(NC2=C(N3CCCCC3)C(=O)c3ccccc3C2=O)cc1	inconclusive: 35.5 µM [inhibitor, single point]	–
CCC(C)NC(=O)c1cn(CC)c2ccc(S(=O)(=O)N3CCCCCC3)cc2c1=O (stereo unspecified)	–	inactive: -21.5%
COc1ccc(SCC(=O)Nc2ccc(N3CCN(C)CC3)c(F)c2)cc1	–	inactive: -11.9%

Structure (SMILES)	Potency	activity, negative = inhibition
COc1ccc(N2CC(NC(=O)C3CCCCC3)CC2=O)cc1OC (stereo unspecified)	–	inactive: -9.45%
COc1ccc(NC(=O)c2cccc(Cn3cc(Br)c([N+](=O)[O-])n3)c2)c(C)c1	inconclusive: 35.5 µM [inhibitor, single point]	–
COc1ccc(C)cc1Nc1cc(C)nc(C)n1	–	inactive: -7.01%
O=C(CN1C(=O)c2cccnc2Oc2ccc(Cl)cc21)Nc1cccc(C(F)(F)F)c1	–	inactive: -24.7%
COC(=O)c1[nH]c2ccccc2c1NC(=O)CNC1CCCCC1	–	inactive: -26%
Clc1cccc(N/N=C/c2ccncc2)c1	–	inactive: -20.4%
COc1ccc(CCN2CCCC(CN(C)Cc3cc(OC)ccc3OC)C2)cc1 (stereo unspecified)	–	inactive: 5.02%
N=c1n(CCN2CCCCC2)c2ccccc2n1CC(=O)c1cccs1	inconclusive: 4.47 µM [inhibitor, full curve]	–
Cc1ccc(Cn2ccc(NC(=O)c3noc4c3CCc3ccccc3-4)n2)cc1	–	inactive: -0.132%
FC(F)C(F)(F)Oc1cccc(Nc2nccn3c(-c4ccc5ccccc5c4)cnc23)c1	–	inactive: 2.35%
CNC[C@H](CC1CCCCC1)NC[C@H](CO)NCC1(c2ccccc2)CC1	inconclusive: 35.5 µM [inhibitor, single point]	–
CC(=O)Nc1cccc(-n2cc3c(c2-c2ccccc2Cl)c(=O)n(C)c(=O)n3C)c1	–	inactive: -13.8%
COc1cc(C)c(C2NC(=O)c3ccccc3N2)cc1C (stereo unspecified)	inconclusive: 15.8 µM [inhibitor, single point]	–
CCOC(=O)/C=C1\CN(Cc2ccc(OC)cc2)S(=O)(=O)c2ccc(C(F)(F)F)cc21	inconclusive: 20 µM [inhibitor, partial curve, poor fit]	–
Cc1cccc(C(=O)NCC(=O)NCCCSc2ccccc2)c1	–	inactive: -7.72%
OC(c1cccc(Cl)c1)c1ncc(-c2ccc(C(F)(F)F)cc2)[nH]1 (stereo unspecified)	inconclusive: 22.4 µM [inhibitor, single point]	–
O=C(N/N=C/C(Cl)=C/c1ccccc1)c1ccncc1	–	inactive: -0.661%
COc1ccc2c(c1)C(=O)N(Cc1ccccc1)C(=O)C2(C)C	–	inactive: 6.15%
Cc1cc(C)c2nc3nc(C)c(C)cc3c(N)c2c1	inconclusive: 25.1 µM [inhibitor, single point]	–
C1=C[C@@H]2CCN(Cc3ccccc3)Cc3cccc(c32)C1	–	inactive: -17.4%
CSc1ccc(-c2nnc(NC(=O)c3ccc4c(c3)OCCO4)o2)cc1	inconclusive: 4.47 µM [inhibitor, full curve, poor fit]	–
CC(C)(C)OC(=O)NCCCCCNC(=O)c1ncn(Cc2ccccc2)c1C(=O)NCCCCCNC(=O)OC(C)(C)C	inconclusive: 17.8 µM [inhibitor, single point]	–
CCS(=O)(=O)c1ccc2oc(SCC(=O)Nc3ccc(OC)cc3OC)nc2c1	inconclusive: 20 µM [inhibitor, single point]	–
